Test results: publication PMC13343975, “A connection between two ancient and essential cellular processes, iron-sulfur protein biogenesis and fatty acid synthesis, in Escherichia coli” (mBio, 2026)
Results are given in words; binding and its absence hold for the method and conditions named. For some of these results: Binding seen in cells or lysates may run through a third protein. Some results given as binding are weak or reduced against the parent protein; the word gives no strength.

Chains of the proteins cited; added tags and fusions are not shown. Lines headed by an entry give the natural chain unless they say otherwise; changes in a name come on top.
UniProt P0A6A8: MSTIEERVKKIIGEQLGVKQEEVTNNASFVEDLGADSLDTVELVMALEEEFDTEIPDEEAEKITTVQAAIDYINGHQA
UniProt P0A6B7: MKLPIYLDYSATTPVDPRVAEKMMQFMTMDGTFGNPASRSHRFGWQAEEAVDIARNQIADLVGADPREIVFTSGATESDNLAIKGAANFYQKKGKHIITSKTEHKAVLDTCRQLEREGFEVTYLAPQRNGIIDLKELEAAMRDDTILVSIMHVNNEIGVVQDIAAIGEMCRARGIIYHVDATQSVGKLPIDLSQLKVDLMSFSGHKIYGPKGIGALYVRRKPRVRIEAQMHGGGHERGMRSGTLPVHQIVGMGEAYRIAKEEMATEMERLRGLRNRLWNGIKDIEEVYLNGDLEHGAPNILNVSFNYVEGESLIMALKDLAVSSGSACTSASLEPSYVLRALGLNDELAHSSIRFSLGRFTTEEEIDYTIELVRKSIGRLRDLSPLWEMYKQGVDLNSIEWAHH

Assays:
[1] = target: 6His-ACP_(D35N) (E. coli) (UniProt P0A6A8); assay: native gel or EMSA; 6His-IscS 15 µM with 6His-ACP or variant 30 µM, 20 min at 37°C in 100 mM Hepes, 150 mM NaCl; non-denaturing 12% PAGE, Coomassie Blue; both purified
[2] = target: 6His-ACP_(S36T) (E. coli) (UniProt P0A6A8); assay: as above
CBP-ACP (E. coli) = CBP-ACP (E. coli) (UniProt P0A6A8); assay: pull-down; co-purification on calmodulin beads: soluble extracts of MG1655 making CBP-ACP fusions (0.01% arabinose), 2 h at 4°C in 10 mM Tris-HCl pH 8.0, 150 mM NaCl, 0.1% NP40, 1 mM Mg-acetate, 1 mM imidazole, 2 mM CaCl2; IscS detected by western blot
CBP-ACP_(D35N) (E. coli) = CBP-ACP_(D35N) (E. coli) (UniProt P0A6A8); assay: as above
CBP-ACP_(D38N) (E. coli) = CBP-ACP_(D38N) (E. coli) (UniProt P0A6A8); assay: as above
CBP-ACP_(E41Q) (E. coli) = CBP-ACP_(E41Q) (E. coli) (UniProt P0A6A8); assay: as above
CBP-ACP_(S36T) (E. coli) = CBP-ACP_(S36T) (E. coli) (UniProt P0A6A8); assay: as above
T25-ACP (E. coli) [3] = target: T25-ACP (E. coli) (UniProt P0A6A8); assay: two-hybrid; BACTH in E. coli BTH101 with human ISD11 co-expressed with the T18-IscS fusion (pT18-IscS-ISD11); β-galactosidase activity
T25-ACP (E. coli) [4] = target: T25-ACP (E. coli) (UniProt P0A6A8); assay: two-hybrid; BACTH: T25 and T18 fusions co-transformed in E. coli BTH101; β-galactosidase activity (Fig. 2A) or spots on LB plates with X-gal and IPTG at 30°C (Fig. 2B, C)
T25-ACP_(D35N) (E. coli) = T25-ACP_(D35N) (E. coli) (UniProt P0A6A8); assay: as above
T25-ACP_(D38N) (E. coli) = T25-ACP_(D38N) (E. coli) (UniProt P0A6A8); assay: as above
T25-ACP_(E41Q) (E. coli) = T25-ACP_(E41Q) (E. coli) (UniProt P0A6A8); assay: as above
T25-ACP_(S36T) (E. coli) = T25-ACP_(S36T) (E. coli) (UniProt P0A6A8); assay: as above

Which results are given for “6His-IscS (from UniProt P0A6B7 1-404) (enzyme)”?
binding [1]: no binding (tested: 15 µM 6His-IscS with 30 µM ACP variant); binding [2]: no binding (tested: 15 µM 6His-IscS with 30 µM ACP variant)

“Endogenous IscS (from UniProt P0A6B7 1-404) (enzyme)” was tested. Which binding (CBP-ACP (E. coli)) did it give?
Its binding is “binds”.

What about the binding (CBP-ACP_(D35N) (E. coli)) of the same molecule?
Its binding is “no binding”.

And the binding (CBP-ACP_(D38N) (E. coli))?
The binding was “no binding”.

What about the binding (CBP-ACP_(E41Q) (E. coli)) of the same molecule?
Its binding is “binds”.

And the binding (CBP-ACP_(S36T) (E. coli))?
The binding was “no binding”.

What does the source list for “T18-IscS (from UniProt P0A6B7 1-404) (enzyme)”?
binding (T25-ACP (E. coli) [3]): no binding (condition: with human ISD11 co-expressed); binding (T25-ACP (E. coli) [4]): binds; binding (T25-ACP_(D35N) (E. coli)): no binding; binding (T25-ACP_(D38N) (E. coli)): no binding; binding (T25-ACP_(E41Q) (E. coli)): binds weakly; binding (T25-ACP_(S36T) (E. coli)): no binding

How did the binding (T25-ACP (E. coli) [4]) turn out when “T18-IscS_(R112E) (from UniProt P0A6B7 1-404) (enzyme)” was run?
The binding was “no binding”.

How did the binding (T25-ACP (E. coli) [4]) turn out when “T18-IscS_(R116E) (from UniProt P0A6B7 1-404) (enzyme)” was run?
Its binding is “no binding”.

B1: T18-SufS (enzyme, UniProt P77444 1-406)
chain: MIFSVDKVRADFPVLSREVNGLPLAYLDSAASAQKPSQVIDAEAEFYRHGYAAVHRGIHTLSAQATEKMENVRKRASLFINARSAEELVFVRGTTEGINLVANSWGNSNVRAGDNIIISQMEHHANIVPWQMLCARVGAELRVIPLNPDGTLQLETLPTLFDEKTRLLAITHVSNVLGTENPLAEMITLAHQHGAKVLVDGAQAVMHHPVDVQALDCDFYVFSGHKLYGPTGIGILYVKEALLQEMPPWEGGGSMIATVSLSEGTTWTKAPWRFEAGTPNTGGIIGLGAALEYVSALGLNNIAEYEQNLMHYALSQLESVPDLTLYGPQNRLGVIAFNLGKHHAYDVGSFLDNYGIAVRTGHHCAMPLMAYYNVPAMCRASLAMYNTHEEVDRLVTGLQRIHRLLG
For B1, which binding (T25-ACP (E. coli) [4]) is on record?
Its binding is “no binding”.
